Source: the supplement of paper PMC12230231
± gives the standard deviation of the averaged measurements. Restriction of a single-cycle SIVsab GFP reporter by TRIM5α v1-loop variants in CRFK cells. Human variants: read share among cells still uninfected after two challenges over input, higher = gained restriction. Rhesus variants: share among infected cells over input, higher = lost restriction. Reporter dose not given per row. No active / inactive call per row; the paper calls a change when both replicates lie above its controls (mean + 2 SD of stop or wild-type variants, or the top frameshift score). Residues outside the varied loop are taken from Swiss-Prot. The paper reads the human single-substitution scores as noise; they and the rhesus combinations repeat poorly (rank correlation 0.3 to 0.4), indel scores repeat only for the top variants, rhesus substitutions well (0.9).

Each sequence was assayed on SIVsab (simian immunodeficiency virus of sabaeus monkeys), single-cycle GFP reporter, in CRFK cells (assay: enrichment among uninfected cells over input (fold); higher = stronger restriction). Settings: library: human / rhesus combinations.
Description: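 Pools of CRFK cells expressing variants of the TRIM5α v1 loop were challenged with the single-cycle reporter, sorted by GFP and sequenced; mean of two replicates.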

Sequence	enrichment
MASGILVNVKEEVTCPICLELLTQPLSLDCGHSFCQACLTANHKKSMLDKGESSCPVCRISYQPENIRPNRHVANIVEKLREVKLSPEGQKVDHCARHGEKLLLFCQEDGKVICWLCERSQEHRGHHTFLTEEVAREYQVKLQAALEMLRQKQQEAEELEADIREEKASWKTQIQYDKTNVLADFEQLRDILDWEESNELQNLEKEEEDILKSLTNSETEMVQQTQSLRELISDLEHRLQGSVMELLQGVDGVIKRTENVTLKKPETFPKNQRRVFRAPDLKGMLEVFRELTDVRRYWVDVTVAPNNISCAVISEDKRQVSSPKPQIIYQAPGTRFTFQSFTNFNYCTGILGSQSITSGKHYWEVDVSKKTAWILGVCAGFQPDAMCNIEKNENYQPKYGYWVIGLEEGVKCSAFQDSSFHTPSVPFIVPLSVIICPDRVGVFLDYEACTVSFFNITNHGFLIYKFSHCSFSQPVFPYLNPRKCGVPMTLCSPSS [human TRIM5α, 330-340 = QAPGTRFTFQSFT]	4.41 ± 0.048
MASGILVNVKEEVTCPICLELLTQPLSLDCGHSFCQACLTANHKKSMLDKGESSCPVCRISYQPENIRPNRHVANIVEKLREVKLSPEGQKVDHCARHGEKLLLFCQEDGKVICWLCERSQEHRGHHTFLTEEVAREYQVKLQAALEMLRQKQQEAEELEADIREEKASWKTQIQYDKTNVLADFEQLRDILDWEESNELQNLEKEEEDILKSLTNSETEMVQQTQSLRELISDLEHRLQGSVMELLQGVDGVIKRTENVTLKKPETFPKNQRRVFRAPDLKGMLEVFRELTDVRRYWVDVTVAPNNISCAVISEDKRQVSSPKPQIIYQAPGTLFTFQSFTNFNYCTGILGSQSITSGKHYWEVDVSKKTAWILGVCAGFQPDAMCNIEKNENYQPKYGYWVIGLEEGVKCSAFQDSSFHTPSVPFIVPLSVIICPDRVGVFLDYEACTVSFFNITNHGFLIYKFSHCSFSQPVFPYLNPRKCGVPMTLCSPSS [human TRIM5α, 330-340 = QAPGTLFTFQSFT]	3.67 ± 0.0081
MASGILVNVKEEVTCPICLELLTQPLSLDCGHSFCQACLTANHKKSMLDKGESSCPVCRISYQPENIRPNRHVANIVEKLREVKLSPEGQKVDHCARHGEKLLLFCQEDGKVICWLCERSQEHRGHHTFLTEEVAREYQVKLQAALEMLRQKQQEAEELEADIREEKASWKTQIQYDKTNVLADFEQLRDILDWEESNELQNLEKEEEDILKSLTNSETEMVQQTQSLRELISDLEHRLQGSVMELLQGVDGVIKRTENVTLKKPETFPKNQRRVFRAPDLKGMLEVFRELTDVRRYWVDVTVAPNNISCAVISEDKRQVSSPKPQIIYGAPGTLYTFPSFVNFNYCTGILGSQSITSGKHYWEVDVSKKTAWILGVCAGFQPDAMCNIEKNENYQPKYGYWVIGLEEGVKCSAFQDSSFHTPSVPFIVPLSVIICPDRVGVFLDYEACTVSFFNITNHGFLIYKFSHCSFSQPVFPYLNPRKCGVPMTLCSPSS [human TRIM5α, 330-340 = GAPGTLYTFPSFV]	0.194 ± 0.053
MASGILVNVKEEVTCPICLELLTQPLSLDCGHSFCQACLTANHKKSMLDKGESSCPVCRISYQPENIRPNRHVANIVEKLREVKLSPEGQKVDHCARHGEKLLLFCQEDGKVICWLCERSQEHRGHHTFLTEEVAREYQVKLQAALEMLRQKQQEAEELEADIREEKASWKTQIQYDKTNVLADFEQLRDILDWEESNELQNLEKEEEDILKSLTNSETEMVQQTQSLRELISDLEHRLQGSVMELLQGVDGVIKRTENVTLKKPETFPKNQRRVFRAPDLKGMLEVFRELTDVRRYWVDVTVAPNNISCAVISEDKRQVSSPKPQIIYQAPGTRFTFPSLVNFNYCTGILGSQSITSGKHYWEVDVSKKTAWILGVCAGFQPDAMCNIEKNENYQPKYGYWVIGLEEGVKCSAFQDSSFHTPSVPFIVPLSVIICPDRVGVFLDYEACTVSFFNITNHGFLIYKFSHCSFSQPVFPYLNPRKCGVPMTLCSPSS [human TRIM5α, 330-340 = QAPGTRFTFPSLV]	0.306 ± 0.1
MASGILVNVKEEVTCPICLELLTQPLSLDCGHSFCQACLTANHKKSMLDKGESSCPVCRISYQPENIRPNRHVANIVEKLREVKLSPEGQKVDHCARHGEKLLLFCQEDGKVICWLCERSQEHRGHHTFLTEEVAREYQVKLQAALEMLRQKQQEAEELEADIREEKASWKTQIQYDKTNVLADFEQLRDILDWEESNELQNLEKEEEDILKSLTNSETEMVQQTQSLRELISDLEHRLQGSVMELLQGVDGVIKRTENVTLKKPETFPKNQRRVFRAPDLKGMLEVFRELTDVRRYWVDVTVAPNNISCAVISEDKRQVSSPKPQIIYQAPGTRFPTLVNFNYCTGILGSQSITSGKHYWEVDVSKKTAWILGVCAGFQPDAMCNIEKNENYQPKYGYWVIGLEEGVKCSAFQDSSFHTPSVPFIVPLSVIICPDRVGVFLDYEACTVSFFNITNHGFLIYKFSHCSFSQPVFPYLNPRKCGVPMTLCSPSS [human TRIM5α, 330-340 = QAPGTRFPTLV]	1.23 ± 1.2
MASGILVNVKEEVTCPICLELLTQPLSLDCGHSFCQACLTANHKKSMLDKGESSCPVCRISYQPENIRPNRHVANIVEKLREVKLSPEGQKVDHCARHGEKLLLFCQEDGKVICWLCERSQEHRGHHTFLTEEVAREYQVKLQAALEMLRQKQQEAEELEADIREEKASWKTQIQYDKTNVLADFEQLRDILDWEESNELQNLEKEEEDILKSLTNSETEMVQQTQSLRELISDLEHRLQGSVMELLQGVDGVIKRTENVTLKKPETFPKNQRRVFRAPDLKGMLEVFRELTDVRRYWVDVTVAPNNISCAVISEDKRQVSSPKPQIIYGARGTLFTFPTFVNFNYCTGILGSQSITSGKHYWEVDVSKKTAWILGVCAGFQPDAMCNIEKNENYQPKYGYWVIGLEEGVKCSAFQDSSFHTPSVPFIVPLSVIICPDRVGVFLDYEACTVSFFNITNHGFLIYKFSHCSFSQPVFPYLNPRKCGVPMTLCSPSS [human TRIM5α, 330-340 = GARGTLFTFPTFV]	0.237 ± 0.095

Same assay, conditions: library: insertions and deletions

Sequence	enrichment
MASGILVNVKEEVTCPICLELLTQPLSLDCGHSFCQACLTANHKKSMLDKGESSCPVCRISYQPENIRPNRHVANIVEKLREVKLSPEGQKVDHCARHGEKLLLFCQEDGKVICWLCERSQEHRGHHTFLTEEVAREYQVKLQAALEMLRQKQQEAEELEADIREEKASWKTQIQYDKTNVLADFEQLRDILDWEESNELQNLEKEEEDILKSLTNSETEMVQQTQSLRELISDLEHRLQGSVMELLQGVDGVIKRTENVTLKKPETFPKNQRRVFRAPDLKGMLEVFRELTDVRRYWVDVTVAPNNISCAVISEDKRQVSSPKPQIIYGARGTRYQTFVNGILGSQSITSGKHYWEVDVSKKTAWILGVCAGFQPDAMCNIEKNENYQPKYGYWVIGLEEGVKCSAFQDSSFHTPSVPFIVPLSVIICPDRVGVFLDYEACTVSFFNITNHGFLIYKFSHCSFSQPVFPYLNPRKCGVPMTLCSPSS [human TRIM5α, 5-codon deletion at 342]	0.711 ± 0.079
MASGILVNVKEEVTCPICLELLTQPLSLDCGHSFCQACLTANHKKSMLDKGESSCPVCRISYQPENIRPNRHVANIVEKLREVKLSPEGQKVDHCARHGEKLLLFCQEDGKVICWLCERSQEHRGHHTFLTEEVAREYQVKLQAALEMLRQKQQEAEELEADIREEKASWKTQIQYDKTNVLADFEQLRDILDWEESNELQNLEKEEEDILKSLTNSETEMVQQTQSLRELISDLEHRLQGSVMELLQGVDGVIKRTENVTLKKPETFPKNQRRVFRAPDLKGMLEVFRELTDVRRYWVDVTVAPNNISCAVISEDKRQVSSPKPQIIYGARGTRYQGARGTRYQTFVNFNYCTGILGSQSITSGKHYWEVDVSKKTAWILGVCAGFQPDAMCNIEKNENYQPKYGYWVIGLEEGVKCSAFQDSSFHTPSVPFIVPLSVIICPDRVGVFLDYEACTVSFFNITNHGFLIYKFSHCSFSQPVFPYLNPRKCGVPMTLCSPSS [human TRIM5α, 8-codon duplication at 330]	0.796 ± 0.65
MASGILVNVKEEVTCPICLELLTQPLSLDCGHSFCQACLTANHKKSMLDKGESSCPVCRISYQPENIRPNRHVANIVEKLREVKLSPEGQKVDHCARHGEKLLLFCQEDGKVICWLCERSQEHRGHHTFLTEEVAREYQVKLQAALEMLRQKQQEAEELEADIREEKASWKTQIQYDKTNVLADFEQLRDILDWEESNELQNLEKEEEDILKSLTNSETEMVQQTQSLRELISDLEHRLQGSVMELLQGVDGVIKRTENVTLKKPETFPKNQRRVFRAPDLKGMLEVFRELTDVRRYWVDVTVAPNNISCAVISEDKRQVSSPKPQIIYGARGTRYQTFYQTFVNFNYCTGILGSQSITSGKHYWEVDVSKKTAWILGVCAGFQPDAMCNIEKNENYQPKYGYWVIGLEEGVKCSAFQDSSFHTPSVPFIVPLSVIICPDRVGVFLDYEACTVSFFNITNHGFLIYKFSHCSFSQPVFPYLNPRKCGVPMTLCSPSS [human TRIM5α, 4-codon duplication at 336]	0.429 ± 0.24
MASGILVNVKEEVTCPICLELLTQPLSLDCGHSFCQACLTANHKKSMLDKGESSCPVCRISYQPENIRPNRHVANIVEKLREVKLSPEGQKVDHCARHGEKLLLFCQEDGKVICWLCERSQEHRGHHTFLTEEVAREYQVKLQAALEMLRQKQQEAEELEADIREEKASWKTQIQYDKTNVLADFEQLRDILDWEESNELQNLEKEEEDILKSLTNSETEMVQQTQSLRELISDLEHRLQGSVMELLQGVDGVIKRTENVTLKKPETFPKNQRRVFRAPDLKGMLEVFRELTDVRRYWVDVTVAPNNISCAVISEDKRQVSSPKPQIIYGTFVNFNYCTGILGSQSITSGKHYWEVDVSKKTAWILGVCAGFQPDAMCNIEKNENYQPKYGYWVIGLEEGVKCSAFQDSSFHTPSVPFIVPLSVIICPDRVGVFLDYEACTVSFFNITNHGFLIYKFSHCSFSQPVFPYLNPRKCGVPMTLCSPSS [human TRIM5α, 7-codon deletion at 331]	0.723 ± 0.03
MASGILVNVKEEVTCPICLELLTQPLSLDCGHSFCQACLTANHKKSMLDKGESSCPVCRISYQPENIRPNRHVANIVEKLREVKLSPEGQKVDHCARHGEKLLLFCQEDGKVICWLCERSQEHRGHHTFLTEEVAREYQVKLQAALEMLRQKQQEAEELEADIREEKASWKTQIQYDKTNVLADFEQLRDILDWEESNELQNLEKEEEDILKSLTNSETEMVQQTQSLRELISDLEHRLQGSVMELLQGVDGVIKRTENVTLKKPETFPKNQRRVFRAPDLKGMLEVFRELTDVRRYWVDVTVAPNNISCAVISEDKRQVSSPKPQIIYGARGTRYQTGTRYQTFVNFNYCTGILGSQSITSGKHYWEVDVSKKTAWILGVCAGFQPDAMCNIEKNENYQPKYGYWVIGLEEGVKCSAFQDSSFHTPSVPFIVPLSVIICPDRVGVFLDYEACTVSFFNITNHGFLIYKFSHCSFSQPVFPYLNPRKCGVPMTLCSPSS [human TRIM5α, 6-codon duplication at 333]	0.636 ± 0.087
MASGILVNVKEEVTCPICLELLTQPLSLDCGHSFCQACLTANHKKSMLDKGESSCPVCRISYQPENIRPNRHVANIVEKLREVKLSPEGQKVDHCARHGEKLLLFCQEDGKVICWLCERSQEHRGHHTFLTEEVAREYQVKLQAALEMLRQKQQEAEELEADIREEKASWKTQIQYDKTNVLADFEQLRDILDWEESNELQNLEKEEEDILKSLTNSETEMVQQTQSLRELISDLEHRLQGSVMELLQGVDGVIKRTENVTLKKPETFPKNQRRVFRAPDLKGMLEVFRELTDVRRYWVDVTVAPNNISCAVISEDKRQVSSPKPQIIYGARGTRYQYCTGILGSQSITSGKHYWEVDVSKKTAWILGVCAGFQPDAMCNIEKNENYQPKYGYWVIGLEEGVKCSAFQDSSFHTPSVPFIVPLSVIICPDRVGVFLDYEACTVSFFNITNHGFLIYKFSHCSFSQPVFPYLNPRKCGVPMTLCSPSS [human TRIM5α, 6-codon deletion at 338]	2 ± 0.83
